# Experimental data: publication PMC4336329 (PLoS ONE, 2015)
# Screen size: about 310,000 compounds; about 2,200 (0.71%) showed an effect of 50% or more. The effect is printed as a negative number. This is one part of the list.
# Target: human ether-à-go-go-related gene (hERG) potassium channel (human, UniProt Q12809)
# Test: primary screen, population patch clamp on CHO cells stably expressing hERG
# human ether-à-go-go-related gene (hERG) potassium channel, sequence (Q12809 whole entry, looked up): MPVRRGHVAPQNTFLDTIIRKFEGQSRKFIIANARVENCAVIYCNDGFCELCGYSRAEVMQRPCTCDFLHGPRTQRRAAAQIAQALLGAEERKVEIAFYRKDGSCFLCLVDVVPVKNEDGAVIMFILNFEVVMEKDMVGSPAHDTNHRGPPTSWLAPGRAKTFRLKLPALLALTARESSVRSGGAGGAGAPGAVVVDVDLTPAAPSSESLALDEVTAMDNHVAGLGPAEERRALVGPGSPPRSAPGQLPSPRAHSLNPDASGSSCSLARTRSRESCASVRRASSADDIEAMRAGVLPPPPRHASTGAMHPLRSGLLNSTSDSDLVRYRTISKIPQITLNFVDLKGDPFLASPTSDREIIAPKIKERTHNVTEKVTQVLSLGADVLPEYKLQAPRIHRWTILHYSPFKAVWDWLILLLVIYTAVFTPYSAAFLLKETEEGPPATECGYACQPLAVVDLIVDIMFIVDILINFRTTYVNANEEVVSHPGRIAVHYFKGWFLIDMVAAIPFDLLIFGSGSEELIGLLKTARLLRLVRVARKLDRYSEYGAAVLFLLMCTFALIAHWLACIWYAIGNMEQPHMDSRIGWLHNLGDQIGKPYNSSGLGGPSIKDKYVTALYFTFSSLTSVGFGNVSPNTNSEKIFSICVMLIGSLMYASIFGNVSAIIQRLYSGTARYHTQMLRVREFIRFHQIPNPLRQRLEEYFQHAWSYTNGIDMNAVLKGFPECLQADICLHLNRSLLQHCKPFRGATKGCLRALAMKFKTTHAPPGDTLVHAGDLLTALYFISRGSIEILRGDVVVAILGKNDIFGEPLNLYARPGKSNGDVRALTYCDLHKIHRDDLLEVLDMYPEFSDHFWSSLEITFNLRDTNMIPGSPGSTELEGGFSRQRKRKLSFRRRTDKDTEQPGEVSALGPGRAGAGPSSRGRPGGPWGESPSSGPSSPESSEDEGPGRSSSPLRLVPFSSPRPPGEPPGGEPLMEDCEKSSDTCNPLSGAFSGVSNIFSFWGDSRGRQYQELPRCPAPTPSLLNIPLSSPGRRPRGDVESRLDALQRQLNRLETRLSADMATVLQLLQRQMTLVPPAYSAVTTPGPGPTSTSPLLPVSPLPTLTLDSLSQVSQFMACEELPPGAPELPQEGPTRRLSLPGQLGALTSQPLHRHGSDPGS
row,SMILES,"hERG current change (%, negative = inhibition) at 1uM [%]"
1,CC(=O)Nc1ccc2nc(NC(=O)CCc3ccccc3)sc2c1,10.7
2,COc1ccc(N/C(N)=N/c2nc(C)cc(C)n2)c(OC)c1,-2.86
3,CCOC(=O)c1ccc(NC(=O)COc2ccccc2CNC2CCCC2)cc1.Cl,-17.7
4,CCC(C(=O)NC1C(=O)N2C(C(=O)O)=C(CSc3nnc(C)s3)CSC12)c1ccccc1 (stereo not shown),7.13
5,Cn1cnnc1SCC(=O)Nc1cc(S(=O)(=O)N2CCCCC2)ccc1Cl,6.68
6,N/C(=N\OC(=O)CCCc1ccccc1)c1ccccn1,18.3
7,CC(C)(C)C(=O)Oc1ccc2cc(-c3ccc4ccccc4n3)c(=O)oc2c1,3.65
8,CNC(=O)C1C(=S)NC(N)=C(C#N)C1c1ccccc1 (stereo not shown),10.1
9,Cc1ccc(S(=O)(=O)NCc2nc3nc(C)cc(C)n3n2)c(C)c1,1.88
10,NC(=O)CN1C(=O)/C(=c2\sc3nc(=O)c(Cc4ccccc4)nn3c2=O)c2ccccc21,13.3
11,Cc1ccc(NC(=S)NNC(=O)c2ccco2)cc1,1.46
12,Cc1ccc(N2C(=O)C(Cl)=C(N3CCN(C)CC3)C2=O)c(C)c1,10.9
13,COc1ccc(C(=O)/C=C/c2ccc(OC3CSC3)cc2)cc1,3.93
14,CCOC(=O)C1(CCc2ccccc2)CCN(C(C)CSC)CC1 (stereo not shown),-23.3
15,NC(=O)c1cc2ccccc2o/c1=N/NC(=O)c1cccs1,-7.73
16,COc1ccccc1CC(=O)N1CCC(n2nccc2NC(=O)C2CCOC2)CC1 (stereo not shown),4.99
17,O=C(O)c1ccc(OCc2ccc(C(=O)O)o2)cc1,21.9
18,CC(C)C(C(=O)NC(C)(C)C)N1C(=O)c2ccccc2C1=O (stereo not shown),7.73
19,CCOC(=O)c1ccc(NC(=O)NC2CC3CCC(C2)N3Cc2nnnn2Cc2ccco2)cc1 (stereo not shown),5.33
20,c1ccc(CCC2CCCCN2Cc2nc(C3CC3)no2)cc1 (stereo not shown),10.9
21,CC(C)=CC(=O)Nc1nnc(-c2ccccc2C)s1,4.9
22,O=C(Cn1ccc2ccccc2c1=O)NCCC(=O)Nc1cccc(Cl)c1,7.17
23,COc1cccc(CNC(=O)CCS(=O)(=O)c2cccc3nsnc23)c1,10

row,SMILES,"hERG current change (%, negative = inhibition) at 1uM [%]"
1,O=C(CSc1nc(-c2ccccc2Cl)ns1)c1ccc(Cl)cc1,5.31
2,CCCCn1c(N)c(C(=O)OCC2CCCO2)c2nc3ccccc3nc21 (stereo not shown),-16.2
3,O=C(O)CCNc1nc(-c2ccccc2)c2cc(Br)ccc2n1,12.6
4,NC(=O)C1CCN(C(=O)/C=C/c2ccccc2[N+](=O)[O-])CC1,13.1
5,CC1CCN(c2ccc(NC(=S)NC(=O)c3ccco3)cc2)CC1,6.74
6,CCN(C/C=C/c1ccccc1OC)Cc1ccccc1,-4.53
7,O=S(=O)(NCc1cccs1)c1cccc(S(=O)(=O)N2CCCCC2)c1,6.01
8,O=c1c2[nH]c3ccc(F)cc3c2ncn1CCC1=CCCCC1,16
9,CC(=O)NC1C(O)OC(CO)C(O)C1O (stereo not shown),8.64
10,CCN(CC)S(=O)(=O)c1ccc(NC(=O)c2c(-c3ccccc3)noc2C)cc1,10
11,CCC1(C(=O)c2ccccc2)C(c2ccc([N+](=O)[O-])cc2)C1(C(=O)OC)C(=O)OC (stereo not shown),8.4
12,CC(=O)C[C@H]1c2ccccc2S(=O)(=O)N1C1CCCC1,14.6
13,CC(C)(C)c1ccc(-c2n[nH]c(=S)n2Cc2ccccc2)cc1,6.75
14,Cc1c(C(=O)N(C)C2CCCCC2)sc2ncnc(N3CCN(c4ccccc4)CC3)c12,-12.5
15,COC(=O)c1cc(NC(=O)Cn2c(=O)cnc3ccccc32)cc(C(=O)OC)c1,11.9
16,CCO/N=C(/c1nonc1N)N1CCN(c2ccc([N+](=O)[O-])cc2)CC1,4.88
17,OCC1CCCN(C(=S)Nc2ccc(Nc3ccccc3)cc2)C1 (stereo not shown),5.87
18,Cc1ccccc1C(=O)NCC(c1ccco1)N1CCc2ccccc2C1 (stereo not shown),-5.37
19,Cc1cc2c(sc3c(C)ccc(C)c32)c(C)n1.Cl,11.8
20,C=CCn1c(-c2ccccc2)ccc(C#N)c1=O,-9.6
21,NC(=O)C1CCN(Cc2nc3cc(Cl)ccc3c(=O)[nH]2)CC1,3.87
22,O=C(O)C1CCN(C(=O)c2ccccc2Cl)CC1,7.18
23,O=C(Nc1ccc(S(=O)(=O)NCCc2ccccc2)cc1)c1ccncc1,13.3

row,SMILES,"hERG current change (%, negative = inhibition) at 1uM [%]"
1,Cc1nc(-c2ccccn2)nc(SCC(=O)c2ccc(F)cc2)c1Cl,12.3
2,Cc1ccc(C(=O)NS(=O)(=O)c2ccccc2)cc1,2.57
3,O=C(COc1ccccc1)N1CCN(CCN2C(=O)c3cccc4cccc(c34)C2=O)CC1,10.4
4,CCn1c(=O)n(CC(=O)Nc2cc(OC)c(OC)c(OC)c2)c(=O)c2ccccc21,-1.15
5,Cc1ccc(/C=C2\SC(=S)N(C3CCS(=O)(=O)C3)C2=O)cc1 (stereo not shown),0.713
6,O=C(O)CC1(CC(=O)NCc2ccc(Cl)cc2)CCCCC1,11.1
7,CCN(Cc1ccccc1)C(=O)c1ccc(CS(=O)c2ccccc2C)o1 (stereo not shown),-11.9
8,COc1ccc(OCC(=O)N/N=C(/C)Cc2ccccc2)cc1,4.14
9,CC(=O)Nc1ccccc1C(=O)C(=O)Nc1ccc(C)c(C)c1,14.1
10,CCCCCc1nnc(NC(=O)C2=COCCO2)s1,6.91
11,COc1ccc(CC(=O)O)cc1O,11.6
12,COc1cc(C(=O)OCc2cccc(S(=O)(=O)N3CCOCC3)c2)ccc1OCC(C)C,9.62
13,COC(=O)c1c(NC(=O)/C=C/c2ccco2)sc2c1CCC2,14.3
14,O=C(O)[C@H](Cc1ccccc1)N1C(=O)c2c(Cl)c(Cl)c(Cl)c(Cl)c2C1=O,4.41
15,CCOC(=O)CSc1nc2sccc2c(=O)[nH]1,13
16,CCN(C(=O)COc1ccccc1[N+](=O)[O-])C1CCS(=O)(=O)C1 (stereo not shown),4.2
17,O=c1[nH]c(CN2CCN(c3ccccc3)CC2)nc2ccccc12,3.38
18,COc1cc(C)ccc1OCC(=O)OCC(=O)c1cc(C)n(CC2CCCO2)c1C (stereo not shown),3.56
19,Cc1sc(NC(=O)C2CCCO2)c(C(N)=O)c1C (stereo not shown),14
20,COc1ccc(Cl)cc1NC(=O)CSc1nc(NS(=O)(=O)c2ccc(C)cc2)cc(=O)[nH]1,7.93
21,COc1ccc(C)cc1NS(=O)(=O)c1ccc(NC(=O)CN(c2cc([N+](=O)[O-])ccc2C)S(C)(=O)=O)cc1,1.18
22,O=C1CCCN2N=C(SCC(=O)Nc3ccc([N+](=O)[O-])cc3)SC2=N1,9.52
23,O=C(Nc1nnc(SCC(=O)N2CCCCC2)s1)c1ccccc1F,12.6

row,SMILES,"hERG current change (%, negative = inhibition) at 1uM [%]"
1,O=C(NCC1CCCO1)C1CC(=O)N(c2cccc(Cl)c2)C1 (stereo not shown),4.72
2,CCN(CC)CCNC(=O)Cc1c(C(=O)O)n(C)c2ccccc12,-0.322
3,COc1ccc(Nc2nc(N)nc(CN3CCN(c4ccc(F)cc4)CC3)n2)cc1,-19.3
4,Cc1cccc(NC(=O)c2ccccc2O)c1C,7.24
5,Cc1ccc(NC(=O)c2ccc(=O)n(CC(=O)Nc3ccccc3)n2)cc1,14
6,CN1CCN(C(=O)/C(=C\c2ccccc2)c2ccccc2)CC1,-43.4
7,CSc1ccc(/C=C/C(=O)c2ccc(NC(=O)Cc3ccccc3)cc2)cc1,-10.4
8,COc1ccc(C(=O)N/C(=C\c2ccc(OC)c(OC)c2)C(=O)N2CCCCC2)cc1,12
9,O=C(NCc1ccccc1)c1nccnc1CO,17.1
10,CN(Cc1ccc(F)cc1)C(=O)CNC(=O)c1ccc2c(c1)OCO2,26.5
11,C=CCNc1nc2ccccc2nc1NS(=O)(=O)c1ccc(Cl)cc1,7.59
12,O=C(/C=C/c1cccc(Br)c1)NC1CCN(Cc2ccccc2)CC1,-27.7
13,COc1ccccc1OP(=O)(O)Oc1ccccc1OC,8.48
14,COc1ccc(CCNC2=NCC(C)S2)cc1 (stereo not shown),14.4
15,COc1cc(NC(=O)CSc2nc(=O)n(CCCN3CCOCC3)c3c2CCC3)cc(OC)c1,-1.74
16,CCC(=O)Nc1sc2c(c1C(=O)N(C)C)CCCCC2,15.4
17,CCOP(=O)(c1ccccc1)C(O)c1ccccc1 (stereo not shown),21.5
18,CC(C)(C)NC(=O)C(c1cccs1)N(CC1CCCO1)C(=O)c1ccc(-c2ccccc2)[nH]1 (stereo not shown),19.9
19,c1ccc(C2CC(c3cccs3)Nc3nnnn32)cc1 (stereo not shown),0.531
20,O=C(CCCn1c(=S)[nH]c2ccccc2c1=O)NCCSCc1ccccc1,0.956
21,CC1CN(S(=O)(=O)c2cccc(C(F)(F)F)c2)CN1C(=O)N1CCOCC1 (stereo not shown),12
22,CC1Cc2nc(SCC(=O)NCc3ccco3)n(Cc3ccccc3)c(=O)c2S1 (stereo not shown),0.486
